Measured values reported in the supplement of paper PMC4967469.
The IC50 comes from the fitted curve, where viability falls to half of the control; a limit (>, <) means that the fit lies beyond the doses tested. AUC sums up the same curve from the lowest dose to the 256-fold higher top dose; it is 1 without any effect and falls as sensitivity rises. For some of these results: The top dose, if marked as inferred, is not printed in the source and was worked back from the curve model. For some of these results: Where an entry number is given, a second screen of the drug exists; the two often differ.

What was measured:
Experiment in all cases: Viability of human cancer cell lines after 72 h of drug (GDSC screen)
HG-5-88-01 = compound: COc1cc(N2CCC(C(N)=O)CC2)ccc1Nc1nc(N)c(Cl)c(Nc2ccccc2S(=O)(=O)C(C)C)n1 [HG-5-88-01]; settings: top dose 10 µM; top dose inferred
Description: (§1)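 Human cancer cell lines in 384-well plates, medium with 10% serum, drug for 72 h over a 256-fold dose range (nine 2-fold or five 4-fold steps up to the top dose). Adherent lines were fixed and stained with the nucleic acid dye Syto60, suspension lines read with resazurin; signal relative to control wells, capped at 0 and 100%. One two-parameter sigmoid per drug and line, fitted in a mixed model over all curves with the slope shared within a line.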

LAQ824 = compound: O=C(/C=C/c1ccc(CN(CCO)CCc2c[nH]c3ccccc23)cc1)NO [LAQ824]; settings: top dose 1.024 µM; top dose inferred
Description: as §1

OSI-930 = compound: O=C(Nc1ccc(OC(F)(F)F)cc1)c1sccc1NCc1ccnc2ccccc12 [OSI-930]; settings: top dose 10.24 µM
Description: as §1

Masitinib = compound: Cc1ccc(NC(=O)c2ccc(CN3CCN(C)CC3)cc2)cc1Nc1nc(-c2cccnc2)cs1 [Masitinib]; settings: top dose 20 µM
Description: as §1

Tamoxifen = compound: CC/C(=C(\c1ccccc1)c1ccc(OCCN(C)C)cc1)c1ccccc1 [Tamoxifen]; settings: top dose 5 µM
Description: as §1

VNLG/124 = compound: CCCC(=O)OCc1ccc(OC(=O)/C=C(C)/C=C/C=C(C)/C=C/C2=C(C)CCCC2(C)C)cc1 [VNLG/124]; settings: top dose 5.12 µM; top dose inferred
Description: as §1

BX-912 = compound: O=C(Nc1cccc(Nc2ncc(Br)c(NCCc3cnc[nH]3)n2)c1)N1CCCC1 [BX-912]; settings: top dose 10.24 µM; top dose inferred
Description: as §1

Elesclomol = compound: CN(NC(=O)CC(=O)NN(C)C(=S)c1ccccc1)C(=S)c1ccccc1 [Elesclomol]; settings: top dose 0.2 µM; top dose inferred
Description: as §1

Bleomycin = compound: Cc1c(N)nc([C@H](CC(N)=O)NC[C@H](N)C(N)=O)nc1C(=O)N[C@H](C(=O)N[C@H](C)[C@@H](O)[C@H](C)C(=O)N[C@H](C(=O)NCCc1nc(-c2nc(C(=O)NCCC[S+](C)C)cs2)cs1)[C@@H](C)O)[C@@H](OC1OC(CO)C(O)C(O)C1OC1OC(CO)C(O)C(OC(N)=O)C1O)c1cnc[nH]1 [Bleomycin]
Description: as §1

NSC-87877 = compound: O=S(=O)(O)c1ccc2cc(N=Nc3cc(S(=O)(=O)O)c4cccnc4c3O)ccc2c1 [NSC-87877]; settings: top dose 16 µM; top dose inferred
Description: as §1

[1] = top dose 50 µM, screen: GDSC drug entry 1378, top dose inferred
[2] = top dose 64 µM, screen: GDSC drug entry 190

Cell Line	AUC (HG-5-88-01)	IC50 (HG-5-88-01) [µM]	AUC (LAQ824)	IC50 (LAQ824) [µM]	AUC (OSI-930)	IC50 (OSI-930) [µM]	AUC (Masitinib)	IC50 (Masitinib) [µM]	AUC (Tamoxifen)	IC50 (Tamoxifen) [µM]	AUC (VNLG/124)	IC50 (VNLG/124) [µM]	AUC (BX-912)	IC50 (BX-912) [µM]	AUC (Elesclomol)	IC50 (Elesclomol) [µM]	AUC (Bleomycin; [1])	IC50 (Bleomycin; [1]) [µM]	AUC (Bleomycin; [2])	IC50 (Bleomycin; [2]) [µM]	AUC (NSC-87877)	IC50 (NSC-87877) [µM]
MFM-223 (breast, adherent)	0.984	> 10	0.735	0.298	0.941	> 10.2	0.966	> 20	0.985	> 5	0.986	> 5.12	0.892	> 10.2	0.453	0.0093	0.94	> 50	0.988	> 64	0.969	> 16
LB2518-MEL (melanoma, adherent)	0.914	> 10	0.513	0.0694	0.924	> 10.2	0.88	> 20	0.986	> 5	0.987	> 5.12	0.968	> 10.2	0.765	0.0771	0.805	26.9	0.241	0.684	0.986	> 16
HuO9 (osteosarcoma, adherent)	0.847	8.61	0.906	> 1.02	0.942	> 10.2	0.877	> 20	0.972	> 5	0.984	> 5.12	0.732	3.2	0.587	0.0223	0.78	23.1	0.912	> 64	0.984	> 16
OE21 (oesophagus, adherent)	0.848	> 10	0.466	0.0498	0.971	> 10.2	0.973	> 20	0.853	> 5	0.974	> 5.12	0.973	> 10.2	0.405	0.00621	0.443	2.05	0.569	6.6	0.978	> 16
SK-LMS-1 (soft tissue, adherent)	0.816	5.19	0.448	0.0466	0.947	> 10.2	0.902	> 20	0.974	> 5	0.987	> 5.12	0.866	8.4	0.482	0.0112	0.258	0.66	0.419	2.43	0.771	5.86
KM12 (large intestine, adherent)	0.984	> 10	0.467	0.0516	0.952	> 10.2	0.897	> 20	0.981	> 5	0.979	> 5.12	0.826	6.91	0.936	> 0.2	0.907	> 50	0.494	3.86	0.954	> 16
OVISE (ovary, adherent)	0.962	> 10	0.534	0.0815	0.976	> 10.2	0.874	> 20	0.977	> 5	0.981	> 5.12	0.938	> 10.2	0.489	0.0116	0.752	21.5	0.642	11.3	0.925	> 16
Becker (glioma, adherent)	0.974	> 10	0.568	0.101	0.96	> 10.2	0.976	> 20	0.964	> 5	0.944	> 5.12	0.934	> 10.2	0.598	0.0241	0.58	5.34	0.692	14.9	0.984	> 16
HSC-4 (head and neck, adherent)	0.788	6.05	0.632	0.167	0.974	> 10.2	0.969	> 20	0.935	> 5	0.972	> 5.12	0.97	> 10.2	0.371	0.0049	–	–	0.921	> 64	0.977	> 16
BB65-RCC (kidney, adherent)	0.964	> 10	0.477	0.0548	0.982	> 10.2	0.88	> 20	0.951	> 5	0.983	> 5.12	0.966	> 10.2	0.604	0.0253	0.807	30.5	0.666	12.5	0.969	> 16
FTC-133 (thyroid, adherent)	0.947	> 10	0.545	0.0859	0.977	> 10.2	0.941	> 20	0.954	> 5	0.982	> 5.12	0.986	> 10.2	0.623	0.0283	0.821	32.8	0.303	1.05	0.984	> 16
HCC-56 (large intestine, adherent)	0.894	> 10	0.421	0.0387	0.926	> 10.2	0.836	13.8	0.979	> 5	0.985	> 5.12	0.92	> 10.2	0.787	0.0894	0.862	44.4	0.038	< 0.25	0.947	> 16
IST-SL2 (small cell lung carcinoma, suspension)	0.987	> 10	0.449	0.0465	0.957	> 10.2	0.801	9.69	0.977	> 5	0.989	> 5.12	0.689	2.15	0.833	0.127	0.945	> 50	0.052	< 0.25	0.961	> 16
D-392MG (glioma, adherent)	0.951	> 10	0.71	0.315	0.931	> 10.2	0.912	> 20	0.977	> 5	0.981	> 5.12	0.739	4.06	0.754	0.0899	0.684	12.4	0.579	7.1	0.976	> 16
K2 (melanoma, adherent)	0.92	> 10	0.624	0.156	0.979	> 10.2	0.949	> 20	0.976	> 5	0.971	> 5.12	0.982	> 10.2	0.656	0.0386	0.734	18.1	0.639	10.9	0.982	> 16
LXF-289 (lung adenocarcinoma, adherent)	0.958	> 10	0.446	0.0456	0.972	> 10.2	0.853	15.2	0.939	> 5	0.982	> 5.12	0.769	3.8	0.574	0.0198	0.326	1.03	0.139	0.303	0.987	> 16
WM35 (melanoma, adherent)	0.888	> 10	0.289	0.0162	0.936	> 10.2	0.781	8.36	0.975	> 5	0.985	> 5.12	0.957	> 10.2	0.333	0.00426	0.748	16.3	0.103	< 0.25	0.969	> 16
CAS-1 (glioma, adherent)	0.974	> 10	0.688	0.264	0.942	> 10.2	0.924	> 20	0.95	> 5	0.979	> 5.12	0.8	7.21	0.819	0.173	0.865	> 50	0.819	55.2	0.975	> 16
CP50-MEL-B (melanoma, adherent)	0.86	8.26	0.677	0.198	0.973	> 10.2	0.984	> 20	0.987	> 5	0.988	> 5.12	0.988	> 10.2	0.454	0.00937	0.66	8.66	0.985	> 64	0.987	> 16
ETK-1 (biliary tract, adherent)	0.901	> 10	0.313	0.0178	0.981	> 10.2	0.875	> 20	0.955	> 5	0.978	> 5.12	0.953	> 10.2	0.65	0.0345	0.521	3.6	0.165	0.318	0.983	> 16
NOS-1 (osteosarcoma, adherent)	0.941	> 10	0.287	0.0138	0.927	> 10.2	0.772	9.51	0.949	> 5	0.925	> 5.12	0.707	2.83	0.257	0.0021	0.77	23.4	0.381	1.74	0.978	> 16
NB-4 (acute myeloid leukaemia, suspension)	0.856	5.87	0.141	0.00669	0.89	8.04	0.888	15.5	0.975	> 5	0.943	> 5.12	0.414	0.39	0.382	0.00631	0.57	4.67	0.421	2.53	0.991	> 16
ESS-1 (endometrium, adherent)	0.972	> 10	0.344	0.0248	0.98	> 10.2	0.864	14.6	0.989	> 5	0.988	> 5.12	0.901	> 10.2	0.658	0.0326	0.168	0.356	0.111	0.267	0.99	> 16
BHT-101 (thyroid, adherent)	0.839	7.12	0.457	0.0486	0.979	> 10.2	0.934	> 20	0.969	> 5	0.966	> 5.12	0.951	> 10.2	0.312	0.00364	0.351	1.19	0.405	2.18	0.985	> 16
